Single values are uncertain, as repeats are few or missing.
Tests used:
[1] = test system: CHO-K1; experiment: micronucleus frequency (% of nucleated events); higher = more micronuclei (genotoxic)
[2] = test system: CHO-K1; experiment: hypodiploid nuclei frequency (% of nucleated events); higher = more hypodiploid events (aneugenic)
[3] = test system: CHO-K1; experiment: relative survival (nuclei to bead ratio vs DMSO control) (% of vehicle control); higher = more surviving cells
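Wherever hypodiploid nuclei frequency (% of nucleated events) is given: hypodiploid nuclei gated on a flow cytometer with 488 nm excitation after SYTOX Green staining, cultures at 37 °C, positive controls vinblastine without S9 and cyclophosphamide with S9.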
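Wherever micronucleus frequency (% of nucleated events) is given: cells lysed with nuclei stained by SYTOX Green, then micronucleus-gated events counted against nucleated events by flow cytometry with 488 nm excitation.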
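Wherever relative survival (nuclei to bead ratio vs DMSO control) is given: Lysed-cell nuclei stained with SYTOX Green and counted against counting beads by flow cytometry at 488 nm excitation, with vinblastine (no S9) and cyclophosphamide (plus S9) as positive controls.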

Clc1ccc(C(c2ccc(Cl)cc2)C(Cl)(Cl)Cl)cc1 [p,p'-DDT]
Conditions	hypodiploid nuclei frequency, [2] [%]	micronucleus frequency, [1] [%]	relative survival, [3]
concentration: 4.5 (µM), S9 metabolic activation: with S9, exposure time: 3-4 hours	0.26	1.1	122
concentration: 4.5 (µM), S9 metabolic activation: without S9, exposure time: 24 hours	0.32	2.26	87.3
concentration: 5.63 (µM), S9 metabolic activation: with S9, exposure time: 3-4 hours	0.24	1.04	108
concentration: 5.63 (µM), S9 metabolic activation: without S9, exposure time: 24 hours	0.58	1.94	85.3
concentration: 7.04 (µM), S9 metabolic activation: with S9, exposure time: 3-4 hours	0.24	0.94	92.8
concentration: 7.04 (µM), S9 metabolic activation: without S9, exposure time: 24 hours	0.5	1.92	77.8
concentration: 8.8 (µM), S9 metabolic activation: with S9, exposure time: 3-4 hours	0.2	1.28	98.6
concentration: 8.8 (µM), S9 metabolic activation: without S9, exposure time: 24 hours	0.48	2.28	83.3
concentration: 11 (µM), S9 metabolic activation: with S9, exposure time: 3-4 hours	0.24	1.16	126
concentration: 11 (µM), S9 metabolic activation: without S9, exposure time: 24 hours	0.4	2.02	101
concentration: 13.7 (µM), S9 metabolic activation: with S9, exposure time: 3-4 hours	0.2	1.04	143
concentration: 13.7 (µM), S9 metabolic activation: without S9, exposure time: 24 hours	0.32	2.14	79.5
concentration: 17.2 (µM), S9 metabolic activation: with S9, exposure time: 3-4 hours	0.22	1.32	125
concentration: 17.2 (µM), S9 metabolic activation: without S9, exposure time: 24 hours	0.6	3.42	68.2
concentration: 21.5 (µM), S9 metabolic activation: with S9, exposure time: 3-4 hours	0.26	1	97
concentration: 21.5 (µM), S9 metabolic activation: without S9, exposure time: 24 hours	0.4	1.9	86.3
concentration: 26.8 (µM), S9 metabolic activation: with S9, exposure time: 3-4 hours	0.08	1.24	74
concentration: 26.8 (µM), S9 metabolic activation: without S9, exposure time: 24 hours	0.4	1.14	82
concentration: 33.6 (µM), S9 metabolic activation: with S9, exposure time: 3-4 hours	0.18	1.04	95.7
concentration: 33.6 (µM), S9 metabolic activation: without S9, exposure time: 24 hours	0.52	0.98	86.3
concentration: 41.9 (µM), S9 metabolic activation: with S9, exposure time: 3-4 hours	0.16	1.1	89.8
concentration: 41.9 (µM), S9 metabolic activation: without S9, exposure time: 24 hours	0.64	1.98	65.6
concentration: 52.4 (µM), S9 metabolic activation: with S9, exposure time: 3-4 hours	0.1	1.44	97.5
concentration: 52.4 (µM), S9 metabolic activation: without S9, exposure time: 24 hours	0.56	1.84	71.8
concentration: 65.5 (µM), S9 metabolic activation: with S9, exposure time: 3-4 hours	0.24	1.66	99.5
concentration: 65.5 (µM), S9 metabolic activation: without S9, exposure time: 24 hours	0.68	2	56
concentration: 81.9 (µM), S9 metabolic activation: with S9, exposure time: 3-4 hours	0.16	1.3	90.6
concentration: 81.9 (µM), S9 metabolic activation: without S9, exposure time: 24 hours	0.5	2.6	52.3
concentration: 102 (µM), S9 metabolic activation: with S9, exposure time: 3-4 hours	0.22	1.12	83.3
concentration: 102 (µM), S9 metabolic activation: without S9, exposure time: 24 hours	0.64	3.5	53.8
concentration: 128 (µM), S9 metabolic activation: with S9, exposure time: 3-4 hours	0.52	2.03	55.4
concentration: 128 (µM), S9 metabolic activation: without S9, exposure time: 24 hours	0.35	5.04	48.5
concentration: 160 (µM), S9 metabolic activation: with S9, exposure time: 3-4 hours	0.27	1.33	43.4
concentration: 160 (µM), S9 metabolic activation: without S9, exposure time: 24 hours	–	–	18.4
concentration: 200 (µM), S9 metabolic activation: with S9, exposure time: 3-4 hours	0.3	7.57	47.1
concentration: 200 (µM), S9 metabolic activation: without S9, exposure time: 24 hours	–	–	7.27

CC(C)(C)c1cc(O)ccc1O [tert-Butylhydroquinone]
Conditions	hypodiploid nuclei frequency, [2] [%]	micronucleus frequency, [1] [%]	relative survival, [3]
concentration: 4.5 (µM), S9 metabolic activation: with S9, exposure time: 3-4 hours	0.34	1.74	119
concentration: 4.5 (µM), S9 metabolic activation: without S9, exposure time: 24 hours	0.46	1.7	78.4
concentration: 5.63 (µM), S9 metabolic activation: with S9, exposure time: 3-4 hours	0.18	1.4	130
concentration: 5.63 (µM), S9 metabolic activation: without S9, exposure time: 24 hours	0.66	2.2	66
concentration: 7.04 (µM), S9 metabolic activation: with S9, exposure time: 3-4 hours	0.22	2.02	112
concentration: 7.04 (µM), S9 metabolic activation: without S9, exposure time: 24 hours	0.62	1.56	83.6
concentration: 8.8 (µM), S9 metabolic activation: with S9, exposure time: 3-4 hours	0.12	1.6	106
concentration: 8.8 (µM), S9 metabolic activation: without S9, exposure time: 24 hours	0.56	1.68	76.8
concentration: 11 (µM), S9 metabolic activation: with S9, exposure time: 3-4 hours	0.14	1.32	146
concentration: 11 (µM), S9 metabolic activation: without S9, exposure time: 24 hours	0.9	1.84	100
concentration: 13.7 (µM), S9 metabolic activation: with S9, exposure time: 3-4 hours	0.14	2.04	110
concentration: 13.7 (µM), S9 metabolic activation: without S9, exposure time: 24 hours	0.8	1.64	107
concentration: 17.2 (µM), S9 metabolic activation: with S9, exposure time: 3-4 hours	0.28	1.68	105
concentration: 17.2 (µM), S9 metabolic activation: without S9, exposure time: 24 hours	0.7	1.52	94.9
concentration: 21.5 (µM), S9 metabolic activation: with S9, exposure time: 3-4 hours	0.34	1.58	127
concentration: 21.5 (µM), S9 metabolic activation: without S9, exposure time: 24 hours	0.68	2.08	92.5
concentration: 26.8 (µM), S9 metabolic activation: with S9, exposure time: 3-4 hours	0.3	2.42	111
concentration: 26.8 (µM), S9 metabolic activation: without S9, exposure time: 24 hours	0.7	2.1	72.2
concentration: 33.6 (µM), S9 metabolic activation: with S9, exposure time: 3-4 hours	0.68	3.44	80.2
concentration: 33.6 (µM), S9 metabolic activation: without S9, exposure time: 24 hours	0.62	2.14	72.7
concentration: 41.9 (µM), S9 metabolic activation: with S9, exposure time: 3-4 hours	0.86	4.78	69.8
concentration: 41.9 (µM), S9 metabolic activation: without S9, exposure time: 24 hours	1.22	4.22	42.1
concentration: 52.4 (µM), S9 metabolic activation: with S9, exposure time: 3-4 hours	0.74	4.74	61.4
concentration: 52.4 (µM), S9 metabolic activation: without S9, exposure time: 24 hours	–	–	14.2
concentration: 65.5 (µM), S9 metabolic activation: with S9, exposure time: 3-4 hours	1.21	6.34	46.2
concentration: 65.5 (µM), S9 metabolic activation: without S9, exposure time: 24 hours	–	–	1.82
concentration: 81.9 (µM), S9 metabolic activation: with S9, exposure time: 3-4 hours	1.44	7.64	44.6
concentration: 102 (µM), S9 metabolic activation: with S9, exposure time: 3-4 hours	–	–	39.1
concentration: 128 (µM), S9 metabolic activation: with S9, exposure time: 3-4 hours	–	–	33.9
concentration: 160 (µM), S9 metabolic activation: with S9, exposure time: 3-4 hours	–	–	29
concentration: 200 (µM), S9 metabolic activation: with S9, exposure time: 3-4 hours	–	–	30.6

Source: the supplement of paper PMC9151546
